Several values for one entry are separate records, joined by “and”; a condition that tells them apart may be missing. Identical values can stand only once. The inconclusive results got no clear call from the source; some entries with a clear call stand among them for comparison. A potency beside an inconclusive call is a rough fit, not a confirmed value. Activity calls are given as the source filed them. The call rests on the fitted dose curve; in most records, active means well fitted curve in the direction sought with a large enough effect; inconclusive means small, poorly fitted or top-dose-only effect, or another doubt; inactive means no such curve, though single readings can be large; an effect the other way counts as inactive or inconclusive.
How the values were obtained:
[1] = qHTS of pediatric cancer cell lines to identify multiple opportunities for drug repurposing: Primary screen for Saos-2 cells (AID 1347097); conditions: Saos-2 viability, CellTiter-Glo ATP luminescence, 48 h; activity change, negative = cytotoxic: at 46 µM (top of the series); further: nearly all actives have a fitted effect of over 40% in size
Method in brief: (§1)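 Cells seeded at 500-1,000 cells/well in growth media, rested 5 hours at 37 degrees C, 5% CO2, then dosed; MIPE compounds at 11-point (from 0.78 nM) and NPC at 8-point (from 0.59 nM) final concentrations. Viability by CellTiter-Glo luminescence after 48 hours.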

[2] = qHTS of pediatric cancer cell lines to identify multiple opportunities for drug repurposing: Primary screen for SK-N-SH cells (AID 1347098); conditions: SK-N-SH viability, CellTiter-Glo luminescence, 48 h; activity change, negative = cytotoxic: at 57 µM (top of the series); further: nearly all actives have a fitted effect of over 65% in size
Method in brief: (§2)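 Cells (500-1,000/well) rested 5 h, then received compounds for 48 h; metabolically active cells were measured by CellTiter-Glo luminescence. Final concentrations spanned up to 46 µM (MIPE, 11-point) or 0.59 nM-46 µM (NPC, 8-point) in primary screens, 11-point in follow-ups.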

[3] = qHTS of pediatric cancer cell lines to identify multiple opportunities for drug repurposing: Primary screen for BT-12 cells (AID 1347101); further: nearly all actives have a fitted effect of over 25% in size
Method in brief: as §2

[4] = qHTS of pediatric cancer cell lines to identify multiple opportunities for drug repurposing: Primary screen for Rh18 cells (AID 1347102); further: nearly all actives have a fitted effect of over 65% in size
Method in brief: (§3)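 Cells (500-1,000/well) in growth media were settled 5 h at 37 degrees C, then given compounds for 48 h. Viability was read as CellTiter-Glo luminescence. Primary runs used MIPE at 11 points (0.78 nM-46 µM) and NPC at 8 points (0.59 nM-46 µM); follow-ups used 11 points.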

[5] = qHTS of pediatric cancer cell lines to identify multiple opportunities for drug repurposing: Primary screen for OHS-50 cells (AID 1347103); further: nearly all actives have a fitted effect of over 40% in size
Method in brief: as §2

[6] = qHTS of pediatric cancer cell lines to identify multiple opportunities for drug repurposing: Primary screen for RD cells (AID 1347104); further: nearly all actives have a fitted effect of over 55% in size
Method in brief: as §1

[7] = qHTS of pediatric cancer cell lines to identify multiple opportunities for drug repurposing: Primary screen for NB1643 cells (AID 1347099); further: nearly all actives have a fitted effect of over 50% in size
Method in brief: as §1

[8] = qHTS of pediatric cancer cell lines to identify multiple opportunities for drug repurposing: Primary screen for LAN-5 cells (AID 1347100); conditions: LAN-5 neuroblastoma viability, CellTiter-Glo luminescence, 48 h; activity change, negative = cytotoxic: at 46 µM (top of the series)
Method in brief: as §3

Measured: Potency
Potency means the concentration at half of the fitted maximal effect; tags describe the fitted curve by direction and shape.

OCCN1CCN(CCCN2c3ccccc3Sc3ccc(C(F)(F)F)cc32)CC1
active: [2] 21.5 µM and 19.4 µM | [5] 24.3 µM and 27.6 µM
inconclusive: [1] 33.2 µM [cytotoxic, single point] and 29.9 µM [cytotoxic, single point] | [3] 30.9 µM [cytotoxic, single point] | [4] 23.5 µM [cytotoxic, single point] and 21.1 µM [cytotoxic, single point] | [6] 26.6 µM [cytotoxic, single point]

N#CC(=Cc1ccc(O)c(O)c1)C(=O)NCc1ccccc1
inconclusive: [1] 18.7 µM [cytotoxic, partial curve] | [7] 16.6 µM [cytotoxic, partial curve] | [8] 9.35 µM [cytotoxic, full curve, poor fit] | [3] 27.3 µM [cytotoxic, partial curve] | [5] 24.3 µM [cytotoxic, partial curve] | [6] 18.7 µM [cytotoxic, partial curve, poor fit]

CC(C)N(CCCNC(=O)Nc1ccc(C(C)(C)C)cc1)C[C@H]1O[C@@H](n2cc(Br)c3c(N)ncnc32)[C@H](O)[C@H]1O
inconclusive: [1] 3.72 µM [cytotoxic, partial curve] | [7] 23.5 µM [cytotoxic, partial curve]
active: [8] 23.5 µM | [3] 24.3 µM | [6] 29.6 µM

CN(C)CCOC(c1ccccc1)c1ccccc1
inconclusive: [1] 18.7 µM [cytotoxic, single point] | [2] 38.3 µM [cytotoxic, single point] | [8] 33.2 µM [cytotoxic, single point] | [5] 43.2 µM [cytotoxic, partial curve, poor fit] and 15.5 µM [cytotoxic, partial curve]

CC[C@H](CO)Nc1nc(NCc2ccccc2)c2ncn(C(C)C)c2n1
inconclusive: [1] 1.87 µM [cytotoxic, partial curve] | [2] 27.1 µM [cytotoxic, single point] | [3] 27.3 µM [cytotoxic, single point] | [6] 18.7 µM [cytotoxic, partial curve]

CCC(C)N(C)C(=O)c1cc2ccccc2c(-c2ccccc2Cl)n1 (stereo unspecified)
inconclusive: [1] 16.6 µM [cytotoxic, partial curve] | [2] 38.3 µM [cytotoxic, single point] | [3] 27.3 µM [cytotoxic, single point] | [5] 4.32 µM [cytotoxic, partial curve, poor fit]

Cc1ccn(-c2ccc(-c3ncco3)cc2)c(=O)c1-c1ccc2nc(N)ncc2c1
inconclusive: [1] 5.26 µM [cytotoxic, full curve] | [2] 24.1 µM [cytotoxic, partial curve] | [3] 21.7 µM [cytotoxic, partial curve, poor fit]
active: [5] 2.73 µM

NC(=O)c1cccc(-c2cc(Nc3ccc(OC(F)(F)F)cc3)ncn2)c1
inactive: [7] | [6]
inconclusive: [1] 5.26 µM [cytotoxic, partial curve] | [8] 18.7 µM [cytotoxic, single point] | [3] 24.3 µM [cytotoxic, partial curve] | [5] 27.3 µM [cytotoxic, single point]

NCC1CCC(C(=O)O)CC1 (stereo unspecified)
inconclusive: [1] 18.7 µM [cytotoxic, partial curve] | [7] 4.69 µM [cytotoxic, partial curve]

Cc1ccc(/C=N/NC(=O)c2ccccc2Oc2ccccc2)o1
inconclusive: [1] 33.2 µM [cytotoxic, single point] | [2] 24.1 µM [cytotoxic, partial curve] | [8] 20.9 µM [cytotoxic, partial curve] | [3] 24.3 µM [cytotoxic, partial curve, poor fit] | [6] 18.7 µM [cytotoxic, partial curve]

Reference: PubChem BioAssay (NCATS)
